# Some of the results follow.
# Test system: HepG2
# Test: cytotoxicity call (relative viability < 0.9)
# Conditions: 10 µM
row,Structure (SMILES),cytotoxicity call
1,COc1ccc(CN2CCN(C(c3ccc(F)cc3)c3ccc(F)cc3)CC2)c(OC)c1OC.Cl,active
2,COc1ccc(C#Cc2cnc3c(c2)C(=O)N([C@@H](C)CO)C[C@H](C)[C@@H](CN(C)C(=O)CN(C)C)O3)cc1,inactive
3,CCCNC(=O)N(C)C[C@H]1Oc2cc(-c3ccc(C)cc3)ccc2S(=O)(=O)N([C@@H](C)CO)C[C@@H]1C,inactive
4,N=C1NC(=O)CS1,inactive
5,COc1ccc(S(=O)(=O)Nc2cccc3c2O[C@H](CN(C)S(=O)(=O)c2ccc(OC)cc2)[C@H](C)CN([C@H](C)CO)C3=O)cc1,inactive
6,CC1CC(OC(=O)C(O)c2ccccc2)CC(C)(C)C1 (configuration not stated),inactive
7,C[C@H](CO)N1C[C@H](C)[C@H](CN(C)C(=O)c2cccc(F)c2)Oc2cc(-c3ccncc3)ccc2S1(=O)=O,inactive
8,CC(C)NC(=O)N(C)C[C@@H]1Oc2c(NC(=O)NC3CCCCC3)cccc2C(=O)N([C@H](C)CO)C[C@@H]1C,inactive
9,CCCC(=O)Nc1ccc2c(c1)C(=O)N(C)C[C@H](OC)[C@@H](C)CN(Cc1ccc(-c3ccccn3)cc1)[C@@H](C)CO2,inactive
10,Cc1noc(C)c1S(=O)(=O)Nc1cccc2c1O[C@H](CN(C)Cc1ccc3c(c1)OCO3)[C@H](C)CN([C@H](C)CO)C2=O,inactive
11,CC(=O)Nc1nnc(S(N)(=O)=O)s1,inactive
12,C[C@@H]1CN([C@@H](C)CO)C(=O)Cc2cc(NS(=O)(=O)c3cn(C)cn3)ccc2O[C@H]1CN(C)Cc1ccncc1,inactive
13,C[C@@H]1CCCCO[C@H](CN(C)Cc2ccc(C(F)(F)F)cc2)[C@@H](C)CN([C@H](C)CO)C(=O)c2cc(NC(=O)Nc3ccc(F)cc3)ccc2O1,inactive
14,O=c1cc(-c2ccccc2)sc2c1ccc1ccccc12,inactive
15,Cc1cc(C)c2ccc(Cl)nc2n1,inactive
16,COc1ccc(CN(C)C[C@H]2OCCCC[C@H](C)Oc3ccc(NC(=O)Nc4c(C)noc4C)cc3C(=O)N([C@H](C)CO)C[C@@H]2C)cc1,inactive

row,Structure (SMILES),cytotoxicity call
1,C[C@@H]1CN([C@@H](C)CO)C(=O)c2cc(NS(C)(=O)=O)ccc2O[C@H]1CN(C)S(=O)(=O)c1ccc(F)cc1,inactive
2,O=C(C[C@H]1CC[C@@H]2[C@H](COC[C@H](O)CN2C(=O)Nc2ccc(Cl)c(Cl)c2)O1)NCc1ccc(Cl)c(Cl)c1,active
3,COc1ccc(NC(=O)N(C)C[C@@H]2OCCCC[C@H](C)Oc3ccc(NC(=O)Nc4cccc5ccccc45)cc3C(=O)N([C@H](C)CO)C[C@@H]2C)cc1,inactive
4,C[C@@H]1CN(CCO)C(=O)c2cc(NC(=O)Nc3ccccc3)ccc2O[C@@H](C)CCCCO[C@H]1CN(C)S(=O)(=O)c1ccc(F)cc1,inactive
5,COc1ccc(S(=O)(=O)N2C[C@H](O)COC[C@H]3O[C@@H](CC(=O)NCc4ccc(Cl)c(Cl)c4)CC[C@@H]32)cc1,inactive
6,C=CCOC(=O)[C@H]1[C@@H]2C(=O)O[C@@H](c3ccccc3)[C@@H](c3ccccc3)N2[C@@H](c2ccc(OCCOC(=O)[C@@H]3C[C@@H]4C(=O)N[C@@H](CCCCNC(C)=O)C(=O)N4[C@@H]3c3cccc(OCCO)c3)cc2)[C@]12C(=O)Nc1ccc(I)cc12,inactive
7,COc1ccc2c3c(n(c2c1)C)[C@@H](CO)N(CC1CCOCC1)C[C@]13CN(C1)C(=O)c1cccc(c1)F,inactive
8,C[C@@H]1CN([C@H](C)CO)C(=O)c2c(c3ccccc3n2C)-c2ccccc2CO[C@H]1CN(C)S(=O)(=O)c1cn(C)cn1,inactive
9,O=C(C[C@@H]1C=C[C@H](NC(=O)c2cccnc2)[C@H](CO)O1)NCCN1CCCCC1,inactive
10,C[C@H](CO)N1C[C@H](C)[C@H](CN(C)Cc2ccc(C(=O)O)cc2)Oc2c(NS(=O)(=O)c3cn(C)cn3)cccc2C1=O,inactive
11,C[C@@H]1CN([C@H](C)CO)C(=O)Cc2cc(NS(=O)(=O)c3cccs3)ccc2O[C@@H]1CN(C)CC1CC1,inactive
12,CN(C)CCCNC(=O)C[C@@H]1CC[C@@H]2[C@H](COc3ccc(NS(C)(=O)=O)cc3C(=O)N2C)O1,inactive
13,C[C@@H]1C(=O)O[C@H]2[C@H](O)[C@@]34[C@H]5C[C@@H](C(C)(C)C)[C@]36[C@@H](OC(=O)[C@@H]6O)O[C@@]4(C(=O)O5)[C@@]12O,inactive
14,O=C(C[C@@H]1CC[C@H]2[C@@H](COC[C@@H](O)CN2S(=O)(=O)c2ccc(F)cc2)O1)N1CCc2ccccc2C1,inactive
15,COc1ccc([C@@H]([C@H](Cc2ccccc2)OC(C)=O)N2Cc3c(noc3[C@@H](O)c3ccccc3)[C@@H]2Cc2ccccc2)cc1,inactive
16,Cc1noc(C)c1S(=O)(=O)N(C)C[C@H]1OCc2cn(nn2)CCCC(=O)N([C@H](C)CO)C[C@@H]1C,inactive
